# The list shows a part of the results.
# Assays:
# Experiment in all cases: glycan array binding signal (z-score within array); higher = stronger binding
# Conditions in all cases: glycan notation: IUPAC condensed, linker removed
# [1] = molecular target: Fuc(a1-2)[GalNAc(a1-3)]Gal(b1-4)GlcNAc(b1-3)Gal(b1-4)GlcNAc
# How it was run: (§1)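 The binding signal is a Z-score computed within each array. Data were drawn from 3228 arrays in the Consortium for Functional Glycomics database, restricted to those with a known protein sequence. Scores were averaged over arrays of the same protein sequence at different concentrations or buffers, and over linkers, and negative values can be taken as non-binding.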
# [2] = molecular target: Fuc(a1-2)[GalNAc(a1-3)]Gal(b1-4)GlcNAc(b1-3)Gal(b1-4)GlcNAc(b1-3)Gal(b1-4)GlcNAc
# How it was run: as §1
# [3] = molecular target: Fuc(a1-2)[GalNAc(a1-3)]Gal(b1-4)[Fuc(a1-3)]GlcNAc
# How it was run: as §1
# [4] = molecular target: Fuc(a1-2)[GalNAc(a1-4)]Gal(b1-4)GlcNAc
# How it was run: as §1
# [5] = molecular target: Fuc(a1-2)[GalNAc(b1-3)]Gal
# How it was run: as §1
# [6] = molecular target: Fuc(a1-3)GlcNAc
# How it was run: as §1
# [7] = molecular target: Fuc(a1-3)[Gal(b1-4)]Glc6S
# How it was run: as §1
# [8] = molecular target: Fuc(a1-3)[Gal(b1-4)]GlcNAc
# How it was run: as §1
# [9] = molecular target: Fuc(a1-3)[Gal(b1-4)]GlcNAc(b1-2)Man(a1-3)[Fuc(a1-3)[Gal(b1-4)]GlcNAc(b1-2)Man(a1-6)]Man(b1-4)GlcNAc(b1-4)GlcNAc
# How it was run: as §1
# [10] = molecular target: Fuc(a1-3)[Gal(b1-4)]GlcNAc(b1-3)Gal(b1-3)[Fuc(a1-4)]GlcNAc
# How it was run: as §1
# [11] = molecular target: Fuc(a1-3)[Gal(b1-4)]GlcNAc(b1-3)GalNAc
# How it was run: as §1
# [12] = molecular target: Fuc(a1-3)[Gal(b1-4)]GlcNAc(b1-4)Gal(b1-4)[Fuc(a1-3)]GlcNAc
# How it was run: as §1
# [13] = molecular target: Fuc(a1-3)[Gal(b1-4)]GlcNAc(b1-4)Gal(b1-4)[Fuc(a1-3)]GlcNAc(b1-4)Gal(b1-4)[Fuc(a1-3)]GlcNAc
# How it was run: as §1
# [14] = molecular target: Fuc(a1-3)[Gal(b1-4)]GlcNAc(b1-6)[Gal(b1-3)GlcNAc(b1-3)]Gal(b1-4)Glc
# How it was run: as §1
# [15] = molecular target: Fuc(a1-3)[Gal(b1-4)]GlcNAc6S
# How it was run: as §1
# [16] = molecular target: Fuc(a1-3)[Gal3S(b1-4)]GlcNAc
# How it was run: as §1
# [17] = molecular target: Fuc(a1-3)[Gal3S(b1-4)]GlcNAc6S
# How it was run: as §1
# [18] = molecular target: Fuc(a1-3)[GalNAc(b1-4)]GlcNAc
# How it was run: as §1
# [19] = molecular target: Fuc(a1-4)GlcNAc
# How it was run: as §1
# [20] = molecular target: Fuc(b1-3)GlcNAc
# How it was run: as §1
# [21] = molecular target: Gal(a1-2)Gal
# How it was run: as §1
# [22] = molecular target: Gal(a1-3)Gal
# How it was run: as §1
# [23] = molecular target: Gal(a1-3)Gal(b1-3)GlcNAc
# How it was run: as §1
# [24] = molecular target: Gal(a1-3)Gal(b1-3)GlcNAc(b1-2)Man(a1-3)[Gal(a1-3)Gal(b1-3)GlcNAc(b1-2)Man(a1-6)]Man(b1-4)GlcNAc(b1-4)GlcNAc
# How it was run: as §1
# [25] = molecular target: Gal(a1-3)Gal(b1-3)[Fuc(a1-4)]GlcNAc(b1-2)Man(a1-3)[Gal(a1-3)Gal(b1-3)[Fuc(a1-4)]GlcNAc(b1-2)Man(a1-6)]Man(b1-4)GlcNAc(b1-4)GlcNAc
# How it was run: as §1
# [26] = molecular target: Gal(a1-3)Gal(b1-4)Glc
# How it was run: as §1
# [27] = molecular target: Gal(a1-3)Gal(b1-4)GlcNAc
# How it was run: as §1
# [28] = molecular target: Gal(a1-3)Gal(b1-4)GlcNAc(b1-3)GalNAc
# How it was run: as §1
# [29] = molecular target: Gal(a1-3)Gal(b1-4)[Fuc(a1-3)]GlcNAc
# How it was run: as §1
# [30] = molecular target: Gal(a1-3)Gal(b1-4)[Fuc(a1-3)]GlcNAc(b1-2)Man(a1-3)[Gal(a1-3)Gal(b1-4)[Fuc(a1-3)]GlcNAc(b1-2)Man(a1-6)]Man(b1-4)GlcNAc(b1-4)GlcNAc
# How it was run: as §1
# [31] = molecular target: Gal(a1-3)GalNAc
# How it was run: as §1
# [32] = molecular target: Gal(a1-3)[Gal(a1-4)]Gal(b1-4)GlcNAc
# How it was run: as §1
# [33] = molecular target: Gal(a1-4)Gal(b1-3)GlcNAc(b1-2)Man(a1-3)[Gal(a1-4)Gal(b1-3)GlcNAc(b1-2)Man(a1-6)]Man(b1-4)GlcNAc(b1-4)GlcNAc
# How it was run: as §1
# [34] = molecular target: Gal(a1-4)Gal(b1-4)Glc
# How it was run: as §1
# [35] = molecular target: Gal(a1-4)Gal(b1-4)GlcNAc
# How it was run: as §1
# [36] = molecular target: Gal(a1-4)Gal(b1-4)GlcNAc(b1-2)Man(a1-3)[Gal(a1-4)Gal(b1-4)GlcNAc(b1-2)Man(a1-6)]Man(b1-4)GlcNAc(b1-4)GlcNAc
# How it was run: as §1
# [37] = molecular target: Gal(a1-4)Gal(b1-4)GlcNAc(b1-3)Gal(b1-4)Glc
# How it was run: as §1
# [38] = molecular target: Gal(a1-4)GlcNAc
# How it was run: as §1
# [39] = molecular target: Gal(a1-6)Glc
# How it was run: as §1
# [40] = molecular target: Gal(b1-2)Gal
# How it was run: as §1
# [41] = molecular target: Gal(b1-3)Gal
# How it was run: as §1
# [42] = molecular target: Gal(b1-3)Gal(b1-4)GlcNAc
# How it was run: as §1
# [43] = molecular target: Gal(b1-3)Gal(b1-4)GlcNAc(b1-2)Man(a1-3)[Gal(b1-3)Gal(b1-4)GlcNAc(b1-2)Man(a1-6)]Man(b1-4)GlcNAc(b1-4)GlcNAc
# How it was run: as §1
# [44] = molecular target: Gal(b1-3)GalNAc
# How it was run: as §1
# [45] = molecular target: Gal(b1-3)GalNAc(a1-3)[Fuc(a1-2)]Gal(b1-4)Glc
# How it was run: as §1
binder,measurement,setting,value
"Lmo1413 (Listeria monocytogenes), Q8Y783 (protein) MKHAKKSLFTFIIFMTILSITFNPFSAKAAPLMLNLPAPQVDQLYIGDDYITGKLQQEVPMHYPGNAAYVLFNNKQYNITDYTVENDVNFRLKLPKTLEAGDTLNYFTITGNVLDPVAYPGQESYKLAGPFSPIEKANIQVNYVDETNQTLATSDTLSGKLGETYTTSPKAIDGYQVKETPTNATGTYTTNTETIQINYVYEKTAVEGANVSVEYINEATNESIAPTETLSGKIGTTFQAEVKEIDGYELSQVPSNQSGTYTDQTQSVIFKYKKITTPDEVAKDVTVTYKDTKGNQLADPVILKGDIGSTFETEAKSFKGYKLTKTPSNHSSVFTSDSQEVEYVYSKDDAVITPPVTPVNPDKPIINPVKPVNPATSTVPNKNISKKNTTKTVNQTGKTSTALQLPKTGDSENNLPLIIGVSLLISGVYIFTTRRKRVK",glycan array binding signal (z-score),[1],0.005
same,glycan array binding signal (z-score),[2],0.245
same,glycan array binding signal (z-score),[3],0.533
same,glycan array binding signal (z-score),[4],0.025
same,glycan array binding signal (z-score),[5],-0.022
same,glycan array binding signal (z-score),[6],-0.211
same,glycan array binding signal (z-score),[7],-0.136
same,glycan array binding signal (z-score),[8],-0.118
same,glycan array binding signal (z-score),[9],-0.204
same,glycan array binding signal (z-score),[10],-0.245
same,glycan array binding signal (z-score),[11],-0.161
same,glycan array binding signal (z-score),[12],0.175
same,glycan array binding signal (z-score),[13],0.131
same,glycan array binding signal (z-score),[14],-0.263
same,glycan array binding signal (z-score),[15],-0.231
same,glycan array binding signal (z-score),[16],-0.186
same,glycan array binding signal (z-score),[17],-0.223
same,glycan array binding signal (z-score),[18],-0.197
same,glycan array binding signal (z-score),[19],-0.225
same,glycan array binding signal (z-score),[20],-0.149
same,glycan array binding signal (z-score),[21],-0.129
same,glycan array binding signal (z-score),[22],-0.219
same,glycan array binding signal (z-score),[23],-0.199
same,glycan array binding signal (z-score),[24],-0.222
same,glycan array binding signal (z-score),[25],0.292
same,glycan array binding signal (z-score),[26],-0.205
same,glycan array binding signal (z-score),[27],-0.229
same,glycan array binding signal (z-score),[28],-0.254
same,glycan array binding signal (z-score),[29],-0.228
same,glycan array binding signal (z-score),[30],0.065
same,glycan array binding signal (z-score),[31],-0.056
same,glycan array binding signal (z-score),[32],-0.048
same,glycan array binding signal (z-score),[33],-0.15
same,glycan array binding signal (z-score),[34],-0.213
same,glycan array binding signal (z-score),[35],-0.023
same,glycan array binding signal (z-score),[36],-0.139
same,glycan array binding signal (z-score),[37],0.081
same,glycan array binding signal (z-score),[38],1.25
same,glycan array binding signal (z-score),[39],-0.157
same,glycan array binding signal (z-score),[40],-0.099
same,glycan array binding signal (z-score),[41],0.145
same,glycan array binding signal (z-score),[42],0.732
same,glycan array binding signal (z-score),[43],-0.25
same,glycan array binding signal (z-score),[44],0.132
same,glycan array binding signal (z-score),[45],-0.046
